Reference: a collection of fitness landscapes (doi:10.1016/j.celrep.2020.107928)
Over roughly 81,000 sequences, “one-hybrid fitness for binding parS DNA” has its median near -0.17; the highest 2% begin near 0.51. The list shows a part of the results.

B1: Caulobacter ParB omega fusion; a variant is named by its letters at X, in order, B8GW30 (parent)
chain: MESVVVGEPGMSEGRRGLGRGLSALLGEVDAAPAQAPGEQLGGSREAPIEILQRNPDQPRRTFREEDLEDLSNSIREKGVLQPILVRPSPDTAGEYQIVAGERAWRAAQRAGLKTVPIMVRELDDLAVLEIGIIENVQRADLNVLEEALSYKVLMEKFERTQENIAQTIGKSXSHVANXMRLLXLPDEVQSYLVSGELTAXHARAIAAAADPVALAKQIIEGGLSVRETEALARKAPNLSAGKSKGGRPPRVKDTDTQALESDLSSVLGLDVSIDHRGSTGTLTITYATLEQLDDLCNRLTRGI

Variants of: B1
Test: one-hybrid fitness for binding parS DNA (scaled: cognate 1, non-cognate 0); higher = stronger binding
Conditions: with parS DNA site
Procedure, shortened: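 Fitness is the rescaled log change in variant-to-wild-type read ratio, measured by Illumina sequencing of plasmids before and after bacterial one-hybrid selection. The scale puts cognate at 1 and non-cognate at 0. Selection of Caulobacter ParB libraries, four specificity codons randomised, took place in E. coli USO with a HIS3 reporter, site 19 bp from the promoter, over 48 hours at 37°C on M9-minus-histidine with 0.1 mM IPTG and 5 mM 3-AT.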

Variant | one-hybrid fitness for binding parS DNA
YNCC | ≤ 0.2
GEYG | ≤ 0.2
AGNC | ≤ 0.2
FEPC | ≤ 0.2
TMHR | ≤ 0.2
NTAM | ≤ 0.2
QMHV | ≤ 0.2
RVSM | 0.347
HCSG | ≤ 0.2
RMWN | 0.43
PLKM | ≤ 0.2
KGCV | ≤ 0.2
AQTF | ≤ 0.2
LKQE | ≤ 0.2
DVSD | ≤ 0.2
YYWG | ≤ 0.2
RVLY | 0.508
SEIR | ≤ 0.2
VMLS | ≤ 0.2
LSPR | ≤ 0.2
MFPC | ≤ 0.2
SLID | ≤ 0.2
YVDG | 0.221
MTDC | ≤ 0.2

Variant | one-hybrid fitness for binding parS DNA
GPTC | ≤ 0.2
DVMK | ≤ 0.2
DTHW | ≤ 0.2
GAVA | ≤ 0.2
RAFT | 0.847
FNVL | ≤ 0.2
PNAT | ≤ 0.2
RDVW | ≤ 0.2
QWQG | ≤ 0.2
VTHL | ≤ 0.2
VDQP | ≤ 0.2
HEPR | ≤ 0.2
SREW | ≤ 0.2
IPLT | ≤ 0.2
KTGN | ≤ 0.2
YARC | ≤ 0.2
SLNF | ≤ 0.2
GYPI | ≤ 0.2
TCAV | ≤ 0.2
VQDA | ≤ 0.2
VNVN | ≤ 0.2
VKSS | ≤ 0.2
LQER | ≤ 0.2
KSNT | ≤ 0.2

Variant | one-hybrid fitness for binding parS DNA
WTLS | ≤ 0.2
QLMK | ≤ 0.2
TDIS | ≤ 0.2
KTFN | ≤ 0.2
PTNT | ≤ 0.2
EWKF | ≤ 0.2
CYNR | ≤ 0.2
CTYG | ≤ 0.2
TAAW | ≤ 0.2
QVAR | ≤ 0.2
SQNF | ≤ 0.2
YQHH | ≤ 0.2
KAFG | ≤ 0.2
RWYW | ≤ 0.2
HSTA | ≤ 0.2
PNEY | ≤ 0.2
NGMG | ≤ 0.2
GAQD | ≤ 0.2
ALDL | ≤ 0.2
DFLA | ≤ 0.2
HMKV | ≤ 0.2
MVSS | ≤ 0.2
NVRK | ≤ 0.2
NLPC | ≤ 0.2

Variant | one-hybrid fitness for binding parS DNA
MEAR | ≤ 0.2
TKRY | ≤ 0.2
VFPW | ≤ 0.2
PTVE | ≤ 0.2
QFKF | ≤ 0.2
AVHN | ≤ 0.2
NRYS | ≤ 0.2
HDEP | ≤ 0.2
QCVR | ≤ 0.2
YRMT | ≤ 0.2
WTNC | ≤ 0.2
MMTQ | ≤ 0.2
HVHT | ≤ 0.2
RAQK | ≤ 0.2
REGK | ≤ 0.2
MDCT | ≤ 0.2
PRIA | ≤ 0.2
VPIR | ≤ 0.2
NMNG | ≤ 0.2
SEMG | ≤ 0.2
LADV | ≤ 0.2
AFRV | ≤ 0.2
TIRG | ≤ 0.2
SQKF | ≤ 0.2

Variant | one-hybrid fitness for binding parS DNA
PQIK | ≤ 0.2
DMHV | ≤ 0.2
HFAT | ≤ 0.2
YAPG | ≤ 0.2
AVPV | ≤ 0.2
ETIY | ≤ 0.2
SESH | ≤ 0.2
CMLG | ≤ 0.2
QFCG | ≤ 0.2
SGSI | ≤ 0.2
YADG | ≤ 0.2
AQTD | ≤ 0.2
LNPE | ≤ 0.2
ACDS | ≤ 0.2
TKRD | ≤ 0.2
HKMS | ≤ 0.2
QWLM | ≤ 0.2
NNRL | ≤ 0.2
RSKQ | ≤ 0.2
QRNT | ≤ 0.2
TDEG | ≤ 0.2
TALI | ≤ 0.2
MAKS | ≤ 0.2
PQAY | ≤ 0.2

Variant | one-hybrid fitness for binding parS DNA
LVKL | ≤ 0.2
VTQD | ≤ 0.2
VTHS | ≤ 0.2
CRKS | ≤ 0.2
DATD | ≤ 0.2
LGNY | ≤ 0.2
DWKS | ≤ 0.2
KRQV | ≤ 0.2
CMFG | ≤ 0.2
GPPP | ≤ 0.2
NTRS | ≤ 0.2
DSTI | ≤ 0.2
YAME | ≤ 0.2
HGWD | ≤ 0.2
DCKY | ≤ 0.2
TVFY | ≤ 0.2
MKYY | ≤ 0.2
STSY | ≤ 0.2
MRQR | ≤ 0.2
RYEQ | ≤ 0.2
FQPL | ≤ 0.2
NWSG | ≤ 0.2
GDPD | ≤ 0.2
GTPV | ≤ 0.2

Variant | one-hybrid fitness for binding parS DNA
AWGG | ≤ 0.2
HQNV | ≤ 0.2
MPPA | ≤ 0.2
TTHW | ≤ 0.2
PPFS | ≤ 0.2
RPAQ | ≤ 0.2
SYPS | ≤ 0.2
FTVG | ≤ 0.2
LHPT | ≤ 0.2
MSDQ | ≤ 0.2
GNER | ≤ 0.2
FARR | ≤ 0.2
GHTV | ≤ 0.2
GQVR | ≤ 0.2
WHCG | ≤ 0.2
YPPT | ≤ 0.2
AVCV | ≤ 0.2
HVET | ≤ 0.2
ANWG | ≤ 0.2
IPSY | ≤ 0.2
QYHG | ≤ 0.2
LAPE | ≤ 0.2
REGR | ≤ 0.2
GCSE | ≤ 0.2

Variant | one-hybrid fitness for binding parS DNA
TLIK | ≤ 0.2
LKDC | ≤ 0.2
DIDS | ≤ 0.2
LNSR | ≤ 0.2
WTGT | ≤ 0.2
RVNY | 0.485
CHLY | ≤ 0.2
AILK | ≤ 0.2
CMSI | ≤ 0.2
FMYS | ≤ 0.2
FGGA | ≤ 0.2
VLSC | ≤ 0.2
PAHF | ≤ 0.2
LFVI | ≤ 0.2
RESH | ≤ 0.2
ATEI | ≤ 0.2
QQYR | ≤ 0.2
VYGC | ≤ 0.2
SILR | ≤ 0.2
THYY | ≤ 0.2
RFCM | 0.271
VKQR | ≤ 0.2
LYRC | ≤ 0.2
RQDP | ≤ 0.2

Variant | one-hybrid fitness for binding parS DNA
SPWG | ≤ 0.2
ARNV | ≤ 0.2
DLVM | ≤ 0.2
QCSM | ≤ 0.2
SVLV | ≤ 0.2
TSVF | ≤ 0.2
KTRK | ≤ 0.2
AATC | ≤ 0.2
TVVD | ≤ 0.2
ATWE | ≤ 0.2
TTTK | ≤ 0.2
QLPT | ≤ 0.2
RNKT | 0.819
TTLS | ≤ 0.2
NDID | ≤ 0.2
STVC | ≤ 0.2
IIDE | ≤ 0.2
NSKR | ≤ 0.2
RCVW | 0.225
YSDN | ≤ 0.2
YSRD | ≤ 0.2
GAKP | ≤ 0.2
PVSI | ≤ 0.2
RKDP | ≤ 0.2

Variant | one-hybrid fitness for binding parS DNA
VDAM | ≤ 0.2
TDTK | ≤ 0.2
NTRC | ≤ 0.2
IWCG | ≤ 0.2
RLQY | 0.495
RINE | ≤ 0.2
DAVC | ≤ 0.2
VDWP | ≤ 0.2
RKYH | ≤ 0.2
VTSG | ≤ 0.2
LCIS | ≤ 0.2
RYFK | ≤ 0.2
WEKT | ≤ 0.2
GRDW | ≤ 0.2
GLGR | ≤ 0.2
ALHP | ≤ 0.2
RPTQ | ≤ 0.2
PRIG | ≤ 0.2
SPDR | ≤ 0.2
YNNF | ≤ 0.2
RPIE | ≤ 0.2
YRKW | ≤ 0.2
HNGV | ≤ 0.2
LRKF | ≤ 0.2

Variant | one-hybrid fitness for binding parS DNA
SKMD | ≤ 0.2
PNYP | ≤ 0.2
HINT | ≤ 0.2
SNMV | ≤ 0.2
YRQH | ≤ 0.2
TVYA | ≤ 0.2
CDCF | ≤ 0.2
ILMC | ≤ 0.2
EVIT | ≤ 0.2
TSTS | ≤ 0.2
MFSR | ≤ 0.2
HRQQ | ≤ 0.2
NSVL | ≤ 0.2
TRAI | ≤ 0.2
RRGF | ≤ 0.2
LQEA | ≤ 0.2
GTCL | ≤ 0.2
QKLC | ≤ 0.2
GSYT | ≤ 0.2
ARIS | ≤ 0.2
CRIA | ≤ 0.2
SLPP | ≤ 0.2
KFGR | ≤ 0.2
SQHN | ≤ 0.2

Variant | one-hybrid fitness for binding parS DNA
KRMR | ≤ 0.2
YIQG | ≤ 0.2
IRRQ | ≤ 0.2
RLAC | 0.995
QYHL | ≤ 0.2
QLTN | ≤ 0.2
PCSQ | ≤ 0.2
SHGM | ≤ 0.2
RREQ | ≤ 0.2
SIPE | ≤ 0.2
WMKS | ≤ 0.2
HEMV | ≤ 0.2
PHGM | ≤ 0.2
PFNQ | ≤ 0.2
QFAA | ≤ 0.2
KWCS | ≤ 0.2
AFPR | ≤ 0.2
GKPV | ≤ 0.2
QHNG | ≤ 0.2
HSCA | ≤ 0.2
TCGL | ≤ 0.2
RHEF | ≤ 0.2
WCSC | ≤ 0.2
DETW | ≤ 0.2

Variant | one-hybrid fitness for binding parS DNA
PASK | ≤ 0.2
PRVV | ≤ 0.2
RESC | 0.215
HGSM | ≤ 0.2
SRPF | ≤ 0.2
CRKH | ≤ 0.2
CSQR | ≤ 0.2
FIPM | ≤ 0.2
NPQA | ≤ 0.2
SAGG | ≤ 0.2
QEEG | ≤ 0.2
SQIC | ≤ 0.2
RISS | 0.992
SHII | ≤ 0.2
WRHY | ≤ 0.2
DKPS | ≤ 0.2
VATT | ≤ 0.2
LNRP | ≤ 0.2
